Test results: PubChem BioAssay AID1346428 (National Center for Advancing Translational Sciences (NCATS), 2018)
Where “and” joins values, the source holds several entries; their conditions need not be identical. Equal values may be shown once. About 1,200 (2.5%) of roughly 48,000 compounds were called active. Another 2% or so got no clear call; they are omitted.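 The calls were made as follows: active = activation of at least 60% and not above a set upper limit (about 1 call in 100 departs from these limits); inconclusive = activation of 40% to 60%, or above that upper limit; inactive = activation under 40%.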 Some of the results follow.

Biological target: Probable G-protein coupled receptor 32 (Homo sapiens) (UniProt O75388)
Test: qHTS for Agonists of Human Resolvin D1 Receptor DRV1
Conditions: CHO-K1 GPR32 beta-arrestin PathHunter luminescence, 90 min; at 76.9 µM; stronger effect = higher value; zero percent set by DMSO-only wells
Description: Endogenous resolution of inflammation is known to be transduced through various GPCRs and their natural mediators of lipid nature. Resolvin D1 (RvD1) is one of the active players in resolution of acute inflammation through regulation of anti-inflammatory pathways; it is known to enhance phagocytosis of human macrophages, limits neutrophils infiltration, etc. […] The search for GPR32-activating small molecules with anti-inflammatory effects similar to its natural omega-3 derivative ligand in order to use them as research tools for further studies of inflammation and its resolution was the goal of this screening project. For primary screening assay, we used CHO-K1 GPR32 beta-arrestin cell line (DiscoveRx, #93-0321C2A) and the PathHunter(R) beta-Arrestin Assay (DiscoveRx) which measures recruitment of beta-arrestin to the GPR32 and generates chemiluminescent signal. These engineered cells stably transfected with GPR32 co-express GPR32-fused small 42-amino acid fragment of beta-Gal called ProLinktrade mark, and […] -tagged beta-Arrestin fusion protein. When GPR32 is activated by a ligand, it stimulates binding of beta -Arrestin to ProLink-tagged GPR32, and two parts of beta-Gal complement forming a functional enzyme. Upon substrate (PathHunter(R) Detection reagent) addition, beta-Gal hydrolyzes it and generates a chemiluminescent signal.
The cells were thawed and plated in thawing media containing F-12 HAM (Invitrogen, #11765-054), 10% FBS (Invitrogen, #10082), 1x Glutamine, and 1x Pen/Strep onto the 175-mm flask for 24 hours. Then, thawing media was replaced with Growth media which contains 800microg/mL Geneticin (Invitrogen, #10131) and 300microg/mL Hygromycin B (Invitrogen, #10687) in addition to described above. For the assay, the cells were harvested at ~80% confluent stage with Cell Dissociation buffer (Gibco, #13151), and seeded at 2,500 cells/ 3microL/well in assay media (PathHunter(R) Cell Plating Reagent, DiscoverX, #93-0563R1B) using MultiDrop Combi dispenser (Thermo Scientific, Logan, UT) onto white solid bottom tissue culture-treated 1536-well plates (Greiner # 789173-F) and allowed to attach overnight at 37 degrees C, 95% humidity, 5% CO2, . Next, 23nL/well of compound solutions in DMSO were added with a Pin Tool (Kalypsis, San Diego, CA) to the assay plates. As the basal control (EC0), 23 nL/well of DMSO was used on each plate. The cells were incubated in the presence of compounds or DMSO for 90 minutes at 37 degrees C, 5% CO2. Subsequently, 1.5microL/well of PathHunter(R) Detection Reagent prepared per the manufacturer's instructions was added to the assay plates with BioRAPTR FRDtrade mark dispenser (Beckman Coulter, San Francisco, CA) and incubated for 1 hour at ambient temperature prior to the measurement of the luminescent signal on ViewLux(R) uHTS Microplate Imager (Perkin Elmer, Waltham, MA).

| Compound | activation |
| --- | --- |
| CCCN1CCc2cc(O)cc3c2[C@H]1Cc1ccc(O)c(O)c1-3 | inactive: 20.9% |
| CN1C(=O)CN=C(c2ccccc2)c2cc([N+](=O)[O-])ccc21 | inactive: -4.68% |
| Cc1ccc(-n2c(/C=C\c3ccc(F)c(F)c3)nc3ccccc3c2=O)c(C)c1 | inactive: 20.2% |
| C#CCN[C@H](C)Cc1ccccc1 | inactive: 4.04% |
| CCCN(CCC)[C@@H]1CCc2cccc(O)c2C1 | inactive: 3.55% |
| CN1C(=O)NC(=O)C(C)(C2=CCCCC2)C1=O (configuration not stated) | inactive: 12.9% |
| CC(CC(C(N)=O)(c1ccccc1)c1ccccc1)N(C)C (configuration not stated) | inactive: 11.8% |
| Cc1ccccc1-c1nn2c(=O)cc(CN3CCN(C(=O)COc4ccccc4Cl)CC3)nc2s1 | inactive: 35.2% |
| NCc1cc(=O)[nH]o1 | inactive: 10.2% |
| COC(=O)c1cncn1C(C)c1ccccc1 (configuration not stated) | inactive: 4.14% |
| C[C@H]1C(=O)O[C@@H]2CCN3CC=C(COC(=O)[C@](C)(O)[C@]1(C)O)[C@H]23 | inactive: -4.84% |
| Cc1cccc(OCC(=O)N2CCN(Cc3cc(=O)n4nc(-c5ccccc5Cl)sc4n3)CC2)c1 | inactive: -6.01% |
| O=[N+]([O-])/N=C1\NCCN1Cc1ccc(Cl)nc1 | inactive: -10.2% |
| CC(=O)OCC1=C(C(=O)O)N2C(=O)[C@@H](N)[C@H]2SC1 | inactive: -5.99% |
| CN(C)C(=S)SSC(=S)N(C)C | inactive: -2.07% |
| Cc1ccc(OCC(=O)N2CCN(Cc3ccc(F)cc3)CC2)cc1 | inactive: -14.5% |
| Cc1ccc(C(C)(C)C)c(OCC(=O)Nc2ccc(Cl)cc2C(=O)c2ccccc2)c1 | inactive: -2.1% |
| COc1cccc(-n2c(/C=C\c3ccc(Cl)cc3)nc3ccccc3c2=O)c1 | inactive: -19.9% |
| c1cnc2c(c1)ncn2C1CCNCC1 | inactive: -6.11% |
| CC(C)(C)NCC(O)c1ccccc1Cl (configuration not stated) | inactive: -6.05% and inactive: -6.61% |
| CC1(C(=O)O)C2CCC(O2)C1(C)C(=O)O (configuration not stated) | inactive: -27.6% |

| Compound | activation |
| --- | --- |
| Oc1ccc([C@H]2CNCc3c2ccc(O)c3O)cc1O | inactive: -6.2% |
| O=C(COc1ccc(Br)cc1)Nc1ccc(Cl)cc1C(=O)c1ccccc1 | inactive: -0.281% |
| C#C[C@]1(O)C=C[C@H]2[C@@H]3CCC4=CC(=O)CC[C@@H]4[C@H]3CC[C@@]21CC | inactive: 27.1% |
| Cc1cc(C)cc(NC(=O)CN2C(=O)CN=C(c3ccccc3)c3cc(Cl)ccc32)c1 | inactive: -31.3% |
| Sc1ccccc1Cl | inactive: -20.5% |
| CCN(CC)C(=O)[C@@H]1C=C2c3cccc4[nH]cc(c34)C[C@H]2N(C)C1 | inactive: -25.3% |
| O=c1c2ccccc2nc(/C=C/c2cccc3ccccc23)n1-c1ccc(Cl)cc1 | inactive: -8.32% |
| C1CCC(NC2CCCCC2)CC1 | inactive: 8.73% |
| CCC1(c2cccc(O)c2)CCCCN(C)C1 (configuration not stated) | inactive: 8.78% |
| CS(=N)(=O)CC[C@H](N)C(=O)O (some centres not stated) | inactive: -9.55% |
| C[C@@H]1CC[C@H]2[C@@H](C)C(=O)O[C@@H]3O[C@@]4(C)CC[C@@H]1[C@]32OO4 | inactive: 14.6% |
| COc1cc(C[C@@H](C)N)c(OC)cc1Br | inactive: -1.05% |
| CC(C)Oc1cccc(NC(=O)c2ccccc2C(F)(F)F)c1 | inactive: 36.4% |
| CCC12CN3CC(CC)(CN(C1)C3c1c(C)[nH]c(=O)[nH]c1=O)C2=O (configuration not stated) | inactive: -2.18% |
| COc1cc(OC)cc(C(=O)Nc2ccc(Cl)cc2C(=O)c2ccccc2Cl)c1 | inactive: -6.45% |
| O=C(Nc1ccc(Br)cc1C(=O)c1ccccc1Cl)c1ccc(Br)cc1 | inactive: 6.62% |
| NCCc1c[nH]c2ccc(O)cc12 | inactive: -1.25% |
| CCN(C(C)=O)c1cccc(-c2ccnc3c(C#N)cnn23)c1 | inactive: -8.94% |
| Cc1ccccc1-c1nc(CN2C(=O)CN=C(c3ccccc3)c3ccccc32)c(C)o1 | inactive: -20.3% |
| COc1ccccc1-c1nn2c(=O)cc(CN3CCN(C(=O)COc4ccccc4Cl)CC3)nc2s1 | inactive: -10.9% |
| CCc1ccc(-n2nc(C)c3c2NC(=O)CSC3c2ccc(C(=O)OC)cc2)cc1 (configuration not stated) | inactive: -0.0879% |

| Compound | activation |
| --- | --- |
| O=[N+]([O-])c1ccc([As](=O)(O)O)cc1 | inactive: 7.74% |
| CC[N+](CC)(CC)CC | inactive: 8.63% and inactive: -1.07% |
| CCOCCOC(C)=O | inactive: 6.37% |
| COc1cc2[nH]c(=O)n(-c3ccc(C)cc3)c(=O)c2cc1OC | inactive: -10.6% |
| CCC(COC(=O)c1cc(OC)c(OC)c(OC)c1)(c1ccccc1)N(C)C (configuration not stated) | active: 97.2% |
| CCCN(CCC)CCc1ccc(O)c(O)c1 | inactive: -11.2% |
| Cc1ccc2nc(NC(=O)c3cccn(Cc4ccccc4F)c3=O)sc2c1 | inactive: 44.6% |
| Cc1ccc2c(=O)n(-c3cccc(Cl)c3)c(=O)[nH]c2c1 | inactive: -31.2% |
| COc1ccc2c(c1)/C(=C/c1cnc[nH]1)C(=O)N2 | inactive: -10.4% |
| Ic1ccccc1CNC1C2CCN(CC2)C1C(c1ccccc1)c1ccccc1 (configuration not stated) | inactive: 31.3% |
| O=C1c2ccccc2C(=O)c2ccccc21 | inactive: -17.9% |
| Nc1ccccc1 | inactive: -0.642% |
| O=C1CC(c2ccc(C(F)(F)F)cc2)c2c(c3ccccc3oc2=O)O1 (configuration not stated) | inactive: 6.27% |
| Cc1cccc(Cn2cccc(C(=O)Nc3nnc(C)s3)c2=O)c1 | inactive: 9.41% |
| Cc1c(Cl)c(=O)oc2cc(OP(=O)(OCCCl)OCCCl)ccc12 | inactive: -1.47% |
| O=C(Nc1ccc2c(c1)OCCO2)c1cccn(Cc2ccccc2)c1=O | inactive: -0.395% |
| CC[N+]1(CCOC(=O)C(O)(c2ccccc2)c2ccccc2)CCCCC1 | inactive: -7.19% |
| C[N+]1(C)[C@@H]2CC[C@H]1CC(OC(=O)C(CO)c1ccccc1)C2 (some centres not stated) | inactive: 17% |
| Cc1ccc(-c2nc(CN3C(=O)CN=C(c4ccccc4Cl)c4cc(Cl)ccc43)c(C)o2)cc1 | inactive: -26.8% |
| Clc1ccc(C(OCCN2CCCCC2)c2ccccc2)cc1 (configuration not stated) | inactive: 37.6% |
